According to PubChem BioAssay AID1508624 (National Center for Advancing Translational Sciences (NCATS), 2021):
In all, about 48,000 compounds went through this assay and about 120 (0.25%) were called active. Another 4% or so got no clear call; they are omitted. The call rests on the fitted dose curve; in most records, active means well fitted activation curve with a large enough effect; inconclusive means small, poorly fitted or top-dose-only effect, or another doubt; inactive means no such curve, though single readings can be large or run the other way. This is one part of the list.

assay: Primary qHTS for Identification of Small Molecule Activators of Huntingtin-Antisense Promoter Activity; details: HEK293 HTT-AS promoter firefly luciferase reporter, 24 h; series mostly up to 57.5 µM; activity change, positive = activation: at the top concentration; further: nearly all actives have a fitted effect of over 55% in size
Summary of the method: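 Luminescence was read after Dual-Glo reagent and a 10 min room-temperature incubation. Values were normalized to vehicle (0% activity) and zero RLU (-100% activity). Reporter HEK293 cells had been exposed to compounds (up to 57.5 uM final) for 24 h.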

Structure (SMILES) | activity change, positive = activation
Cc1cccc(Nc2c(-c3ccsc3)nc3nc(C)cc(C)n23)c1 | inactive: -5.45%
Cc1ccc(C(=O)c2oc3ccccc3c2NC(=O)Cc2coc3ccc(C)cc23)cc1 | inactive: -6.26%
CCOC(=O)c1c(C)[nH]c(C)c1S(=O)(=O)N(C)CC(=O)NCc1ccc(Cl)cc1 | inactive: 0.587%
COc1ccc(-n2cnc3cc(C(=O)NC4CCCCCC4)ccc32)cc1 | inactive: -22.6%
O=C(O)c1ccc2nc(-c3cc4cc(Cl)ccc4oc3=O)[nH]c2c1 | inactive: 2.83%
Cc1ccc(-c2nc3c4ccccc4n(CC(=O)NCc4ccc(F)cc4)c(=O)n3n2)cc1 | inactive: 27.1%
O=C(CSc1nc(-c2ccccc2F)nc2cc(=O)[nH]n12)Nc1cccc(C(F)(F)F)c1 | inactive: -23.6%
CCOc1ccccc1-c1nc(Cn2c(=O)cc(C)c3c(C)nn(-c4ccccc4)c32)c(C)o1 | inactive: -7.4%
COC(=O)c1sc(-c2ccccc2)cc1NC(=O)Nc1ccc(F)cc1 | inactive: -13.4%
COc1ccc(C(CC(=O)NCc2ccc(Cl)cc2)N2Cc3ccccc3C2=O)cc1OC (configuration not stated) | inactive: -22.7%
Cc1ccc(OCC(=O)Nc2ccc(S(=O)(=O)Nc3cc(C)on3)cc2)c(Br)c1 | inactive: -18%
COc1ccc(CCNC(=O)C2CCN(Cc3nc(-c4ccc(OC)c(OC)c4)oc3C)CC2)cc1OC | inactive: -3.54%
O=C(NCCn1cc(SCc2ccc(Br)cc2)c2ccccc21)c1cccs1 | inactive: -35.2%
CCC1Oc2ccccc2N(CC(=O)NCc2cc(OC)ccc2OC)C1=O (configuration not stated) | inactive: -5.24%
CCCC(=O)N1CCc2cc(OC)c(OC)cc2C1COc1ccc(C(=O)OC)cc1 (configuration not stated) | inactive: -26.5%
CCN(CC)C(=O)Cn1c(=O)n(CC2CCC(C(=O)NC)CC2)c(=O)c2sccc21 (configuration not stated) | inactive: -6.09%
CCOc1ccc(CCNc2nc3c(-c4ccc(C)cc4)nnn3c3ccccc23)cc1OCC | inactive: 0.902%
Cc1ccc(-c2ccc(=O)n(CC(=O)Nc3ccc(F)c(Cl)c3)n2)cc1C | inactive: -6.84%
COc1cccc(NC(=O)CSC2=Nc3ccccc3C3=NC(CCC(=O)NCc4ccco4)C(=O)N23)c1 (configuration not stated) | inactive: -13.1%
CCOc1ccccc1C(=O)Nc1ccc(S(=O)(=O)N2CCCCC2c2cccnc2)cc1 (configuration not stated) | inactive: -28.2%
COc1ccccc1C(=O)Nc1nnc(S(=O)(=O)N2CCCCCC2)s1 | inactive: -20.7%
COc1ccc(-c2nc(CNS(=O)(=O)c3ccc(C)cc3)cs2)cc1 | inactive: -34.7%
O=C(NCc1ccccc1Cl)c1ccc(NC(=O)N2CCCCc3ccccc32)cc1 | inactive: -21.6%

Structure (SMILES) | activity change, positive = activation
CCOc1ccc(NC(=O)CSC2=Nc3ccccc3C3=NC(CC(=O)NCc4ccc5c(c4)OCO5)C(=O)N23)cc1 (configuration not stated) | inactive: -0.0447%
Cc1ccc(S(=O)(=O)c2c(Nc3cccc(Cl)c3)sc(C(=O)c3ccc4c(c3)OCO4)c2N)cc1 | inactive: -11.7%
COc1ccc(-c2nc3ccccc3n2Cc2ccc(Cl)cc2)cc1 | inactive: -15.7%
O=C(OCc1cc(=O)n2c3c(sc2n1)CCCC3)c1cccc(NC(=O)c2ccccc2F)c1 | inactive: -31.3%
COc1cc(C)ccc1OCCSc1nnc(-c2ccc(C)cc2)o1 | inactive: -9.63%
Cc1ccc(C(=O)c2oc3ccccc3c2NC(=O)Cc2coc3c(C)c(C)ccc23)cc1 | inactive: -3.57%
Cc1cccc(NC(=O)CN(C)S(=O)(=O)c2ccc3c(c2)c(=O)n(C)c(=O)n3C)c1 | inactive: -17%
O=C(NCCS(=O)(=O)N1CCN(c2ccccc2)CC1)C1CC(=O)N(c2ccccc2)C1 (configuration not stated) | inactive: 2.98%
CC1CCCCN1CC(=O)N1CCCc2c1c(=O)oc1ccc(OCc3ccccc3)cc21 (configuration not stated) | inactive: -33.8%
Cc1cc(Br)ccc1NC(=O)C1(S(=O)(=O)c2ccc(Cl)cc2)CC1 | inactive: -14.2%
COc1ccc(OC)c(-c2noc(CSc3nnc(Cc4ccccc4)n3-c3cccc(C)c3)n2)c1 | inactive: -21.8%
Cn1cc(S(=O)(=O)c2ccccc2)c(=O)c2cc(F)c(N3CCCCC3)cc21 | inactive: -6.05%
Cc1noc2nc(C(=O)O)nc(N3CCCCC3)c12 | inactive: -3.55%
COc1cccc(N2CC(NC(=O)COc3ccc4ccccc4c3)CC2=O)c1 (configuration not stated) | inactive: -3.27%
CCc1nnc(SCC(=O)Nc2cc(Cl)c(OC)cc2OC)c2cc3oc(C)cc3n12 | inactive: -4.92%
CC(=O)c1ccc(NC(=O)CCn2nc(C)c(S(=O)(=O)N3CCC(C)CC3)c2C)cc1 | inactive: -19.1%
CC1CCC(NC(=O)Cn2ncc3c4ccccc4n(Cc4ccc(Cl)cc4)c3c2=O)CC1 (configuration not stated) | inactive: -8.98%
CCCCN(CC)C(=O)Nc1ccc2c(c1)N(C)C(=O)c1ccccc1S2 | inactive: -27.3%
COC(=O)c1c(C)sc(-c2c(-c3cccc(OC)c3)[nH]c3c2c(=O)[nH]c(=O)n3C)c1O | inactive: -9.48%
CC(=O)Nc1ccc(S(=O)(=O)NC2(C(F)(F)F)NC(=O)N(c3ccc(Cl)cc3)C2=O)cc1 (configuration not stated) | inactive: -5.15% [at 11.5 µM, percent change from vehicle, -100% = no light]
COc1ccc(C(=O)N2CCc3cc(OC)c(OC)cc3C2COc2ccccc2OC)cc1 (configuration not stated) | inactive: -16.6%
COc1ccc(C)c2sc(N(Cc3cccnc3)C(=O)CCc3ccccc3)nc12 | inactive: -24.4%
CCCn1c(=O)c2sccc2n2c(CCCC(=O)Nc3ccc(C)c(F)c3)nnc12 | inactive: -7.4%

Structure (SMILES) | activity change, positive = activation
O=C(Nc1ccc(Cl)c(Cl)c1)C1CC1 | inactive: -5.45%
Cc1ccc(C(=O)COC(=O)c2cc(-c3ccc(Cl)cc3)nc3ccccc23)cc1 | inactive: -11.2%
COc1ccc(-c2noc(CN3CCN(c4ccccc4OC)CC3)n2)cc1OC | inactive: -23.9%
COc1ccc(CNc2ncnc3c2nnn3C)cc1 | inactive: 3.3%
COc1ccc(CN2C(=O)C(NC(=O)c3ccccc3C)(C(F)(F)F)N=C2c2ccccc2)cc1 (configuration not stated) | inactive: -27.7%
Cc1nn(CC(=O)NCc2ccc(OC(C)C)cc2)c(=O)c2c(C)n(-c3ccc(Cl)cc3)nc12 | inactive: -34.3%
Cc1cccc(NC(=O)Cn2cc(C(=O)c3ccco3)c3ccccc32)c1C | inactive: -36.3%
CCc1ccccc1NC(=O)Cn1nnc(C(=O)Nc2ccc(C)c(F)c2)c1N | inactive: 1.26%
CSc1ccc(CCNC(=O)Cn2ncc3c(=O)oc4ccc(C)cc4c32)cc1 | inactive: -6.84%
CCCCCOc1ccc(C2c3c(oc4ccccc4c3=O)C(=O)N2c2nc(C)c(C)s2)cc1OCC (configuration not stated) | inactive: -0.213% [at 11.5 µM, percent change from vehicle, -100% = no light]
COc1ccccc1CCNc1ncnc2c1nnn2C | inactive: 5.84%
Cc1ccc(-n2c(=O)c3ccc(C(=O)NCc4ccco4)cc3n(Cc3cccc(Cl)c3)c2=O)cc1 | inactive: 10.1%
CC(C)c1cnc2c(c1SCc1cccc(C(F)(F)F)c1)c(=O)n(C)c(=O)n2C | inactive: -9.37%
Cc1cccc(-n2c3nc(=O)n(C)c(=O)c-3cc3c(Cl)cccc32)c1C | inactive: -4.55%
CC(C)CCNC(=O)CSCc1cnn(-c2ccccc2)c1-n1cccc1 | inactive: -30.1%
CCc1nc(SCC(=O)Nc2ccc(NC(C)=O)cc2)n[nH]1 | inactive: -19.6%
COC(=O)c1ccccc1NC(=O)Cc1noc2ccc(C)cc12 | inactive: -11.1%
COc1ccc(Br)cc1CNC(=O)CN1CCSc2ccccc21 | inactive: -38.7%
COc1ccc(NC(=O)Cn2c(=O)n(Cc3nc(-c4ccccc4)no3)c(=O)c3cc4c(cc32)OCO4)cc1Cl | inactive: -10.9%
Cc1cccn2c(=O)cc(COc3cccc(NC(=O)c4ccccc4F)c3)nc12 | inactive: 2.21%
O=C(Nc1cccc(Cl)c1)c1csnn1 | inactive: 6.52%
Cc1ccc(-c2nc(SCC(=O)NCC3CCCO3)c(-c3ccc(C)cc3)[nH]2)cc1 (configuration not stated) | inactive: -11.2%
NC(=O)c1cc(S(=O)(=O)NCC2CCC(C(=O)Nc3ccc(Cl)cc3)CC2)cs1 (configuration not stated) | inactive: -15.7%

Structure (SMILES) | activity change, positive = activation
Cc1ccc([N+](=O)[O-])cc1S(=O)(=O)N(C)N=Cc1cnc2ccc(Br)cn12 | inactive: -39.4%
Cc1nnc(N2CCN(C(=O)Nc3cccc(C(F)(F)F)c3)CC2)c2nn(-c3ccccc3)c(C)c12 | inactive: -5.76%
Cn1nc(C(=O)N2CCN(c3ccccc3)CC2)c2c1-c1ccccc1S(=O)(=O)C2 | inactive: 0.539%
COc1ccc(S(=O)(=O)c2c(SC)nn(Cc3ccccc3C)c2NC(C)=O)cc1 | inactive: -7.66%
O=C(Nc1ccc(O)cc1)c1cccc(S(=O)(=O)N2CCOCC2)c1 | inactive: -0.527%
O=C(CSc1nc2c([nH]c3ccccc32)c(=O)n1-c1ccccc1)N1CCCC1 | inactive: -21.6%
O=C(O)c1cn(C2CC2)c2cc(Cl)c(F)cc2c1=O | inactive: -5.66%
O=c1c2oc3ccccc3c2n(Cc2ccccc2)c(=O)n1Cc1ccc2c(c1)OCO2 | inactive: -5.97%
CCOC(=O)c1cccc(Nc2ccc3cc(S(=O)(=O)N4CCCCC4)ccc3n2)c1 | inactive: -30.4%
COc1cc(C2CC(=O)Nc3c2c(=O)[nH]c2ncnn32)ccc1O (configuration not stated) | inactive: -13%
CCOC(=O)C1CCCN(C(=O)c2ccc3c(c2)N(Cc2ccccc2)C(=O)c2ccccc2S3=O)C1 (configuration not stated) | inactive: -15.3%
CCCN1CCCc2cc(CN(CCCN3CCOCC3)C(=O)Nc3ccc(CC)cc3)ccc21 | inactive: -33.4%
COc1ccc2oc(=O)cc(CN3CCN(c4ccccc4F)CC3)c2c1 | inactive: -10.8%
COc1cccc(NS(=O)(=O)c2ccc3[nH]cc(C(=O)N(C)C4CCCCC4)c(=O)c3c2)c1 | inactive: -3.76%
CCCCn1c(=O)c2oc3ccccc3c2n(CC(=O)Nc2cccc(Cl)c2)c1=O | inactive: -12.9%
CCCCc1nn2c(=O)cc(COC(=O)c3ccccc3NC(=O)c3ccccc3OC)nc2s1 | inactive: 0%
CCCC(=O)N1c2nc(C(C)C)nn2C2(CCCCC2)[C@@H]2CCCC[C@@H]21 | inactive: -20.2%
COc1cc2c(cc1OC)n(CC(=O)c1ccc(F)cc1)c(=O)n1nc(CCn3nc(C)cc3C)nc21 | inactive: 7.81%
COc1cccc(CNC(=O)c2ccc(NC(=O)N3CCCCc4ccccc43)cc2)c1 | inactive: -12.4%
CCOC(=O)c1c(S(=O)(=O)N2CCCC(C(=O)Nc3ccc(OCC)cc3)C2)c(C)n(C)c1C (configuration not stated) | inactive: -23.5%
Cn1cc(-c2ccc3nnc(C(F)(F)c4ccc5ncccc5c4)n3n2)cn1 | inactive: -7.49%
Cc1ccc(S(=O)(=O)c2cn(Cc3cccc(F)c3)c3cc(N4CCCC4)c(F)cc3c2=O)cc1 | inactive: -1.44%
COc1ccc(C)cc1Nc1nc2c(S(=O)(=O)c3cccc(Cl)c3)nnn2c2ccsc12 | inactive: -18.8%
